The record followed here is the RNAGym collection of RNA variant scans (doi:10.1073/pnas.2313332121).

Variants at the floor of the assay are shown more often than the library holds them.

Sequences and labels used below:
B1: TPR 5TU (parent)
chain: GGAUCUUCUCGAUCUAACAAAAAAGACAAAUCUGCCACAAAGCUUGAGAGCAUCUUCGGAUGCAGAGGCGGCAGCCUUCGGUGGCGCGAUAGCGCCAACGUUCUCAACUAUGACACGCAAAACGCGUGCUCCGUUGAAUGGAGUUUAUCAUG

The variants in the data set derive from B1. As to the kind of experiment: polymerase ribozyme fitness, log enrichment relative to wild type (log ratio); higher = more active; in vitro selection for triplet polymerase activity. In outline: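 Frozen incubation at −7 °C formed the core of a single, triplicate in vitro selection round applied to PCR-built, transcribed mutant libraries of each subunit of a heterodimeric triplet polymerase ribozyme. Extended constructs were gel-excised, captured with streptavidin beads and amplified by RT-PCR, and input and output libraries were Illumina-sequenced with a filter of ≥10 input reads and ≥1 read per output. Fitness is the logarithm of genotype enrichment relative to wild-type enrichment, with inverse-variance-weighted replicate averaging, and the logarithm is base 2.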
With GGAUCUUCUCGAUCUAACAAAAAAGACAAUUCUGUCACAAAGCUUGAGAGCAUCUUCGGAUGCAGAGGCGGCAGCCUUCGGUGGCGCGAUAGCGCCAACGUUCUCAACUAUGACACGCAAAACGCGUGCCCCGUUGCAUGGAGUUUAUCAUG [A30U C35U U130C A137C], the “polymerase ribozyme fitness (log ratio)” value was at most -4.2.

As for GGAUCUUCUCGAUCUAACAAAAAAGACAAUUAUGCCACAAAGCUUGAGAGCUUCUUCGGAUGCAGAGGCGGCAGCCUUCGGUGGCGCCAUAGCGCCAACGUUCUCAACUAUGUCACGCAAAACGCGUGCUCCGGUGAAUGGAGUUUAUCAUG [A30U C32A A52U G88C A113U U134G], the “polymerase ribozyme fitness (log ratio)” value is at most -4.2. The same measure for GGAUCUUCUCGAUCUAACAAAAAAGACAAUUCUGCCACAAAGCUUGAGAGCAUCUUCGGAUGCAGAGGCGGCAGCCUUUGGUGGCGCGAUAGCGCCAACGUUCUCAACUAUGACACGCAAAAUGCGUGCUCCGUUGAAUGGAGUUUAUCAUG [A30U C79U C123U]: at most -4.2.

For the variant GGAUCUUCUCGAUCUAACAAAAAAGACAAUUCUGCCACAAAACUUGAGAGCAUCUUCGGAUGCAGAGGCGGCAGCCCUCGGUGGCGCGAUAGCGCCAACGUUCUCAACUAUGACACGCAAAACGCGUGCUCCGUUGAAUGGAGAUUAUCAUG [A30U G42A U77C U144A], the “polymerase ribozyme fitness (log ratio)” value is at most -4.2. Then GGAUCUUCUCGAUCUAACAAAAAAGACAAUUCUGCCACAAAGCUUGAGAGCAUCUUCGGAUGCUGAGGCGGCAGCCUUUGGUGGUGCGAUACCGCCAACGUUCUCAACAAUGACACGCAAAACGCGUGCUCCGUUGAAUGGAGUUUAUCAUG [A30U A64U C79U C85U G92C U109A], with at most -4.2; and GGAUCUUCUCGAUCUAACAAAAAAGACAAUUCUGCCAUAAAGCUUGAGAGCAUCGUCGGAUGUAGAGGCGGCAGAGUUCGGUGGCGCCAUAGCGCCAACGUUCUCAAUUAUGACACGCAAAACGCGUGCUCCGUUGAAUGGAGUUUAUCAUG [A30U C38U U55G C63U C75A C76G G88C C108U], with at most -4.2; and GGAUCUUCUCGAUCUAACAAAAAAGACAAUUCUGCCACAAAGCUUGAGAGCAUCUUCGGAUGAAGAGGCGGCAGCCUUCGGUGGUGCGAUAGCGCCAAAGUUCUGAACUAUGACACGCAAAAGGCGUGCUCCGUUGAAUGGCGUUUAUCAUG [A30U C63A C85U C99A C105G C123G A142C], with at most -4.2. Then GGAUCUUCUCGAUCUAACAAAAAAGACAAUUCUGCCACAAAGCUUGAGAGCAUCUUCGGAUGCAGAGGCGGCUGCCUUCGGUGGCUCGAUAGCGCCAACGUUCUCAACUAUGACACGCAAAACGCAUGCUCCGUUGAAUGGAGUUUAUCAUG [A30U A73U G86U G126A], with at most -4.2; and GGAUCUUCUCGAUCUAACAAAAAAGACAAUUCUUCCACAAAGCUUGAGAGCAUCUUCGGAUGCAGAGGCGGCAGGCUUCGGUGGCGCGAUAUCGCCAACGUUCUCAACUAUGACACGCAAAACGCGUGCUCCGUUGGAUGGAGUUUAUCAUG [A30U G34U C75G G92U A137G], with at most -4.2.

GGAUCUUCUCGAUCUAACAAAAAAGACAAUUCUGCCACAAAGCUUGAGAGUAUCAUCGGAUGCAGAGGCGGCAGCCUUCGGUGGCGCGAAAGUCCCAACUUGCUCAACUAUGACACGCAAAACGCGUGCUCCGUUGAAUGGAGAUUAUCAUG [A30U C51U U55A U90A C93U G94C G100U U102G U144A]: the “polymerase ribozyme fitness (log ratio)” value is at most -4.2. The same measure for GGAUCUUCUCGAUCUAACAAAAAAGACAAUUCUGCCACAAAGCUUGAGAGCAUCUUCGGAUGCAGAGGCGGCAGCCUUCGGUGGCGUGAUAGCGCCAACGUUCUCAACUAUGACACGCAAAACGCGUGCUCCGUUGAAUGGAGUUUAUCAUG [A30U C87U]: -3.22; for GGAUCUUCUCGAUCUAACAAAAAAGACAAUUCUGCCACAAAGCUUGAGAGCAUCUUCGGAUGCAGAGGCGGCAGCCUUCGGUGGCGAGAUAGCGCCAACGUUCUCAACUAUGACACGCAAAACGCGUGCUCCGUUGAAUGGAGUUUAUCAUG [A30U C87A]: at most -4.2. Then GGAUCUUCUCGAUCUAACAAAAAAGACAAUUCUGCCACAAAGCUUGAGAGCAUCUUCGGAUGCAGAGGCGGCAGCCUUCGGUGGCGCGAUAGCGCCAACGUUCUCAAGUAUGACACGCAAAACGCGUGCUCCGUUGAAUGCAGUUUAUAAUG [A30U C108G G141C C149A], with at most -4.2; and GGAUCUUCUCGAUCUAACAAAAAAGACAAUUCUGCCACAAAGCUUGAGAGCAUCUUCGGAUGCAGAGGUGGCAGCCUUCGGUGGUGCGAUAGCGCCAACGUUCUCGACUAUGACACGCAAAAUGCGUGCUCCGUUGGAUGGAGUUUAUCAUG [A30U C69U C85U A106G C123U A137G], with at most -4.2. Turning to GGAUCUUCUCGAUCUAACAAAAAAGACAAUUCUGCCACAAAUCUUGAGAGCAUCUUCGGAUGCAGAGGCGGCAGCCUUCGGUGGCGCGAUAGCGCCAACGUUCUCAACUAUGACACGCGAAACGCGUGCUCCGUUGAGUGGAGUUUAUCAUG [A30U G42U A119G A138G], the “polymerase ribozyme fitness (log ratio)” value was at most -4.2. As to GGAUCUUCUCGAUCUAACAAAAAAGACAAUUCUGCCACAAAGCUUGAGAGGAUCUUCGGAUGCAGAGGCGGCAGCCUUCGGUGGCGCGAUAGCGCCAUCGUUCUCAACUAUGACACGCAAAACGCGUGCUCCGUUUAAUGGAGUUUAUCAUG [A30U C51G A98U G136U], the “polymerase ribozyme fitness (log ratio)” value was at most -4.2. On to GGAUCUUCUCGAUCUAACAAAAAAGACAAUUCUGCCACAAAGCUUGAGAGCAUCUUCGGAUGCCGAGGCGGUAGCCUUCGGUGGCGCGAUAGCGCCUACGUUCUCAACUAUGACACGCUAAACGCGUGCUCCGUUAAAUGGAGUUUAUCAUG [A30U A64C C72U A97U A119U G136A], for which the “polymerase ribozyme fitness (log ratio)” value was at most -4.2. Then GGAUCUUCUCGAUCUAACAAAAAAGACAAUUCUGACACAAAGCUUGAGAGCAUCAUCGGAUGCAGAGGCGGCAGCCUUCGGUGGCGCGAUAGCGCGAACGUUCUCAACUAUGACACGCACAACGCGUGCUCCGUUGAAUGGAGUUUAUCAUG [A30U C35A U55A C96G A120C], with at most -4.2; and GGAUCUUCUCGAUCUAACAAAAAAGACAAUUCUGCCACAAAGCUUGAGAGCAUUUUCGGAUGCAGAGGCGGCAGCCAUCGGUGACGCGAUAGCGCCAACGUUCUCAACUAUGACACGCAAAACGCGUGCUCCGUUGAAUCGAGUUUAUCAUG [A30U C54U U77A G84A G140C], with at most -4.2.
